# Source: PubChem BioAssay AID504832 (National Center for Advancing Translational Sciences (NCATS), 2011)
# Screen size: about 310,000 compounds; about 18,000 (5.8%) were called active. The inconclusive results got no clear call from the source; some entries with a clear call stand among them for comparison. Calls come from the whole dose curve; as a rule, active = well fitted inhibition curve with a large enough effect; inconclusive = small, poorly fitted or top-dose-only effect, or another doubt; inactive = no such curve, though single readings can be large or run the other way. No potency is given beside an inconclusive call; the fits are too rough.
# Assay: Primary qHTS for delayed death inhibitors of the malarial parasite plastid, 48 hour incubation
# Conditions: P. falciparum luciferase growth in erythrocytes; series mostly up to 28.7 µM; activity change, negative = inhibition: at the top concentration
# Method in brief: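 Erythrocytes infected with P. falciparum carrying an integrated firefly luciferase reporter (2% hematocrit, 0.1% parasitemia final) were exposed to compounds in RPMI 1640 with 0.5% Albumax at 37 C, 5% CO2. Growth inhibition was scored as reduced luminescence.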
# % is set by controls: 0 for no effect and ±100 for the full control effect; potency is the fitted concentration of half-maximal effect; tags give direction and shape of the fitted curve.
SMILES,Potency,"activity change, negative = inhibition"
COc1ccc(NC(=O)CN2CCC3(O)CCCCC3C2c2ccccc2OC)cc1 (stereo not drawn),"inconclusive [inhibitor, single point]",
CCOC(=O)Cc1c(C)nc2c(-c3ccc(Cl)cc3)cnn2c1C,"inconclusive [inhibitor, single point]",
CCC(C)(C)n1nnnc1CN1CCN(c2nc3cc(OC)ccc3cc2C#N)CC1,"inconclusive [inhibitor, partial curve]",
O=C(CCC1CCCC1)N=C1SC2CS(=O)(=O)CC2N1c1ccccc1F (stereo not drawn),"inconclusive [inhibitor, single point]",
COc1cccc(CNC(=O)c2cc(S(=O)(=O)N3CCOCC3)ccc2N2CCCC2)c1,"inconclusive [inhibitor, single point]",
NNC(=O)c1ccc(COc2ccc3ccccc3c2)cc1,"inconclusive [inhibitor, single point]",
Nc1nc(SCC(=O)Nc2ccc(OCc3ccccc3)cc2)n[nH]1,,inactive: 18.9%
CCn1c2ccc(/C(C)=N\O)cc2c2cc(/C(C)=N\O)ccc21,"inconclusive [inhibitor, single point]",
Cc1ccc(C(=O)O)cc1[N+](=O)[O-],,inactive: 18.5%
CCCOc1ccc(N2C(=O)CC(N(CCc3ccc(OC)c(OC)c3)C(=O)c3ccccc3)C2=O)cc1 (stereo not drawn),,inactive: -21.7%
COc1ccc(-n2c(C)cc(/C=C3/SC(=O)N(CC(=O)N4CCOCC4)C3=O)c2C)cc1,,inactive: -3%
CC(C)N1CCC(=NNC(=O)c2ccc(Br)o2)CC1,"inconclusive [inhibitor, full curve, poor fit]",
O=c1c(CN2CCN(Cc3ccccc3)CC2)coc2ccc(Cl)cc12,,inactive: 30.1%
N/C(Cc1ccc(Cl)cc1)=N\OC(=O)c1cccc2ccccc12,"inconclusive [inhibitor, full curve, poor fit]",
CCOc1ccc(C(=O)CC(Sc2ccc(C)cc2)C(=O)O)cc1 (stereo not drawn),,inactive: 12.8%
O=C(NCc1ccco1)c1ccc([N+](=O)[O-])o1,"inconclusive [inhibitor, partial curve, poor fit]",
[N-]=[N+]=CC(=O)C(Cc1ccccc1)N1C(=O)c2ccccc2C1=O (stereo not drawn),"inconclusive [inhibitor, partial curve]",
CCOC(=O)c1sc(SCC(=O)Nc2ccc(N(C)C)cc2)nc1N,,inactive: -4.19%
CCOCC(=O)Nc1cc(Cl)ccc1C,,inactive: 23%
Cc1cc(C(=O)COC(=O)c2ccc(O)cc2O)c(C)n1-c1ccc(OC(F)F)cc1,active: 9.28 µM,
O=C(NC(Cc1ccc(O)cc1)C(=O)O)/C(=C/c1ccccc1)NC(=O)c1ccccc1 (stereo not drawn),,inactive: 78.7%
CC(C)=CCC/C(C)=C/CC/C(C)=C/CC/C(C)=C/CC1=C(C)C(=O)c2ccccc2C1=O,active: 11.7 µM,
CNCCCOc1cccc(Oc2ccccc2)c1,"inconclusive [inhibitor, single point]",
O=C(O)CN1CCN(Cc2ccc(F)cc2Cl)C1=O,"inconclusive [inhibitor, partial curve, poor fit]",
Clc1ncccc1-c1nnn(-c2ccccc2)n1,,inactive: 366%

SMILES,Potency,"activity change, negative = inhibition"
O=C(NCc1ccccc1Cl)c1ccc2c(=O)n(CCCN3CCCC3=O)c(=S)[nH]c2c1,"inconclusive [inhibitor, partial curve]",
COC(=O)c1c(NC(=O)/C=C/C(=O)O)sc(C)c1-c1ccc(C)cc1,"inconclusive [inhibitor, single point]",
N#Cc1ccccc1CSc1ccc(-c2nc3ccccc3[nH]2)cn1,"inconclusive [inhibitor, single point]",
COc1ccc(CNC(=O)CN(C(=O)c2snc(C(N)=O)c2N)c2ccc(F)cc2)cc1,,inactive: 11.3%
Cc1cccc(NC(=O)N(Cc2nc3ccccc3c(=O)[nH]2)C2CCCC2)c1,"inconclusive [inhibitor, partial curve, poor fit]",
COc1ccc(C(=O)N2CCOC2CNC(=O)C(=O)NCCc2ccccc2OC)cc1 (stereo not drawn),"inconclusive [inhibitor, full curve, poor fit]",
COc1ccc(-c2cc(C(=O)N3CCc4ccccc4C3)no2)cc1,,inactive: 12.5%
O=C(NC1CCN(CC(=O)N(c2ccccc2)c2ccccc2)CC1)c1ccc([N+](=O)[O-])cc1,,inactive: 38.5%
CN1C2CCC1CC(OC(=O)c1cc(Cl)cc(Cl)c1)C2 (stereo not drawn),"inconclusive [inhibitor, partial curve]",
COc1ccc(CC(=O)N2CCN(c3ccccc3F)CC2)cc1OC,,inactive: 6.55%
COc1ccc(N(CC(=O)NCCSc2ccccn2)S(=O)(=O)c2ccc(C)cc2)cc1OC,"inconclusive [inhibitor, partial curve, poor fit]",
CCC(C)NC(=O)c1c(C)cc(=O)oc1C (stereo not drawn),,inactive: 1.15%
Cc1ccc(OCC(=O)NCCCNC(=O)c2ccncc2)cc1,"inconclusive [inhibitor, partial curve, poor fit]",
N#CC(Sc1ccccn1)c1ccc(Cl)cc1Cl (stereo not drawn),"inconclusive [inhibitor, partial curve, poor fit]",
Cn1c(=N)n(CC(O)c2cccs2)c2ccccc21 (stereo not drawn),"inconclusive [inhibitor, partial curve, poor fit]",
CCOc1ccc(C2C(C(=O)c3ccco3)=C(O)C(=O)N2CCCn2ccnc2)cc1OC (stereo not drawn),,inactive: 25.7%
C=CCN1C(=O)NC(=O)/C(=C/c2c(CCN(C)C(=O)c3ccccc3)cc3c(c2OC)OCO3)C1=O,"inconclusive [inhibitor, full curve, poor fit]",
COc1ccccc1NC(=S)NC(=O)C1CC1,,inactive: 3.86%
COCCN1CC(=O)N2C(c3cccc(OC)c3)c3[nH]c4ccccc4c3C[C@H]2C1=O (stereo partly drawn),active: 11.7 µM,
COc1ccc(N2CCN(C3CCCN(Cc4ccc(F)cc4Cl)C3)CC2)cc1 (stereo not drawn),"inconclusive [inhibitor, single point]",
[O-][n+]1onc2c1CCC(=N/O)/C2=N\Nc1ccccc1,active: 7.38 µM,
S=C(NCCSCc1ccccc1Cl)Nc1ccccc1,"inconclusive [inhibitor, single point]",
COc1ccc(-c2oc3cc(O)c(OC)c(O)c3c(=O)c2OC)cc1,"inconclusive [inhibitor, partial curve, poor fit]",
CCN(C(=O)CN1C(=O)S/C(=C\c2cccc(OC)c2)C1=O)C1CCS(=O)(=O)C1 (stereo not drawn),"inconclusive [inhibitor, partial curve]",
O=C(Cn1c(=S)[nH]c2ccccc2c1=O)N1CCN(c2ccccc2)CC1,,inactive: 9.04%

SMILES,Potency,"activity change, negative = inhibition"
Cc1cccc(NC(=O)C2CCCN(S(=O)(=O)c3ccc4[nH]c(=O)ccc4c3)C2)n1 (stereo not drawn),"inconclusive [inhibitor, single point]",
CCCn1nc(C(=O)NNC(=O)Cc2ccc(S(=O)(=O)N3CCOCC3)s2)c2ccccc2c1=O,active: 11.7 µM,
Cc1cccc(/C=N\NC(=O)c2csnn2)c1,,inactive: 50.2%
Cc1ccc(S(=O)(=O)N(CCC(=O)N2CCOCC2)c2ccccc2)cc1,"inconclusive [inhibitor, single point]",
Fc1ccc(C2=CCN(C(c3ccc(Cl)cc3)c3nnnn3Cc3ccccc3)CC2)cc1 (stereo not drawn),active: 11.7 µM,
O=C(/C=C/c1ccc2ccccc2n1)c1cc(Br)ccc1O,"inconclusive [inhibitor, partial curve, poor fit]",
CCC(C)(C)n1nnnc1C(c1ccccc1OC)N1CCSCC1 (stereo not drawn),active: 11.7 µM,
CC(C)C[C@@H](COc1ccccc1)N1CCN(CC(C)C)CCC1=O,"inconclusive [inhibitor, partial curve]",
Clc1ccccc1OCc1nnc2n1CCCCC2,,inactive: 22.1%
CCN1/C(=C2\C(=O)N(C)C(=S)N2C)C=Cc2cc(OC)ccc21,active: 14.7 µM,
CCN1CCN(CC(=O)N2CCCC(C(=O)c3ccc(Oc4ccccc4)cc3)C2)CC1 (stereo not drawn),"inconclusive [inhibitor, single point]",
CC(C)(C)c1cc(NC(=O)c2cccc([N+](=O)[O-])c2)no1,,inactive: 394%
Cc1ccc(NC(=O)c2cc3c(CO)cnc(C)c3oc2=Nc2cccc(C(N)=O)c2)cc1,,inactive: 1.72%
Cc1cc(C)nc(NC(=NCCc2c[nH]c3ccccc23)NC(=O)c2ccco2)n1,active: 6.57 µM,
CC(C(=O)N1CCc2ccccc21)n1cccc1 (stereo not drawn),,inactive: -11%
CCCNC(=O)c1ccc2c(=O)c(O)c(-c3ccc(OC)cc3)[nH]c2c1,"inconclusive [inhibitor, single point]",
N#Cc1cccc(C(=O)OCc2cccc(S(=O)(=O)N3CCOCC3)c2)c1,"inconclusive [inhibitor, single point]",
CCC(COC)Oc1cc(NCc2ccccc2)c2ncn(C(C)C)c2c1 (stereo not drawn),active: 4.15 µM,
Fc1ccc(-n2cc(-c3ccccc3)c3c(N4CCOCC4)ncnc32)cc1,,inactive: -25.4%
Cc1ccc(Nc2nc(Oc3ccc(OCc4ccccc4)nn3)nc(N3CCOCC3)n2)cc1,"inconclusive [inhibitor, partial curve]",
COc1cccc(NC(=O)CN(c2ccc([N+](=O)[O-])cc2)S(=O)(=O)c2ccccc2)c1,"inconclusive [inhibitor, partial curve, poor fit]",
CC(C)(C)NC(=S)N1CCn2cccc2C1c1cccnc1 (stereo not drawn),,inactive: 3.99%
CC(C)(C)C(=O)NNC(=O)c1cc(C(C)(C)C)nn1Cc1ccccc1,,inactive: -11.2%
